In PubChem BioAssay AID540317 (National Center for Advancing Translational Sciences (NCATS), 2011):
Screen size: about 390,000 compounds; about 2,200 (0.56%) were called active. Calls follow the shape of the dose curve; as a rule, active = well fitted inhibition curve with a large enough effect; inconclusive = small, poorly fitted or top-dose-only effect; inactive = no such curve, though single readings can be large or run the other way. Inconclusive means that the source gave no clear call. Potencies of inconclusive entries are doubtful fits and often do not repeat.

What follows are compounds tested against Chromobox protein homolog 1 (Homo sapiens) (UniProt P83916) (assay: HTS for Inhibitors of HP1-beta Chromodomain Interactions with Methylated Histone Tails). Details: AlphaScreen HP1-beta / biotin-H3K9me3 peptide binding; series mostly up to 114 µM.
UniProt P83916, sequence (P83916 whole entry, looked up, the tested form may be a part): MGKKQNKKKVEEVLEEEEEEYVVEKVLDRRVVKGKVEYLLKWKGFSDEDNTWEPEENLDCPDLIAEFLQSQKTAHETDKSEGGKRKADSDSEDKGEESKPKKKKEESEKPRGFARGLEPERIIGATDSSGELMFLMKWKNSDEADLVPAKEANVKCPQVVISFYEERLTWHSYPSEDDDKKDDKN
From the text: As our understanding of epigenetics expands, it is becoming clear that players in this field are potential targets for drug development. This area of epigenetic therapy has established applications for the treatment of cancer and neurological diseases. We have been involved in this field for a number of years and have performed high-throughput screens to identify the first small molecule inhibitors of protein methyltransferases. These methyltransferases target multiple substrates, and thus regulate many arms of an epigenetic pathway. The methylation of different substrates often generates docking sites for effector proteins that harbor binding domains (chromo, tudor, PHD, MBT and ANK repeats). It has been proposed that the binding sites generated for different proteins by these post-translational modifcations mediate downstream effects on chromatin. Consistent with this theory, di- and tri-methylation of histone H3K9 facilitates the binding of heterochromatin protein HP1. The HP1 protein harbors a chromodomain that is responsible for the methyl-dependent interaction between HP1 and lysine 9 of histone H3. […] Low-affinity protein-protein interactions (Kd in the single- to double-digit micromolar range) such as those discussed here have been very difficult to assay by traditional techniques such as fluorescence polarization or fluorescence resonance energy transfer. […]
Also: nearly all actives have a fitted effect of over 70% in size.
Potency is read from the fitted curve at half-maximal effect; tags tell the direction and shape of the fitted curve.

Structure (SMILES) | Potency
COc1cc(/C=C2/C(=O)NN(c3ccc(Cl)cc3)C2=O)cc(Br)c1O | inconclusive: 28.2 µM [inhibitor, full curve]
